Assay results published in publication PMC4336329 (PLoS ONE, 2015).
Among all 310,000 compounds or so, about 14,000 (4.5%) showed an effect of 50% or more. Effects have a minus sign here. Some of the results follow.
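Note: peak tail current of the secondary pulse compared with the same well before compound.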

The compounds below were run against human ether-à-go-go-related gene (hERG) potassium channel (human, UniProt Q12809) (assay: primary screen, population patch clamp on CHO cells stably expressing hERG).
Chain of human ether-à-go-go-related gene (hERG) potassium channel (Q12809 whole entry, looked up): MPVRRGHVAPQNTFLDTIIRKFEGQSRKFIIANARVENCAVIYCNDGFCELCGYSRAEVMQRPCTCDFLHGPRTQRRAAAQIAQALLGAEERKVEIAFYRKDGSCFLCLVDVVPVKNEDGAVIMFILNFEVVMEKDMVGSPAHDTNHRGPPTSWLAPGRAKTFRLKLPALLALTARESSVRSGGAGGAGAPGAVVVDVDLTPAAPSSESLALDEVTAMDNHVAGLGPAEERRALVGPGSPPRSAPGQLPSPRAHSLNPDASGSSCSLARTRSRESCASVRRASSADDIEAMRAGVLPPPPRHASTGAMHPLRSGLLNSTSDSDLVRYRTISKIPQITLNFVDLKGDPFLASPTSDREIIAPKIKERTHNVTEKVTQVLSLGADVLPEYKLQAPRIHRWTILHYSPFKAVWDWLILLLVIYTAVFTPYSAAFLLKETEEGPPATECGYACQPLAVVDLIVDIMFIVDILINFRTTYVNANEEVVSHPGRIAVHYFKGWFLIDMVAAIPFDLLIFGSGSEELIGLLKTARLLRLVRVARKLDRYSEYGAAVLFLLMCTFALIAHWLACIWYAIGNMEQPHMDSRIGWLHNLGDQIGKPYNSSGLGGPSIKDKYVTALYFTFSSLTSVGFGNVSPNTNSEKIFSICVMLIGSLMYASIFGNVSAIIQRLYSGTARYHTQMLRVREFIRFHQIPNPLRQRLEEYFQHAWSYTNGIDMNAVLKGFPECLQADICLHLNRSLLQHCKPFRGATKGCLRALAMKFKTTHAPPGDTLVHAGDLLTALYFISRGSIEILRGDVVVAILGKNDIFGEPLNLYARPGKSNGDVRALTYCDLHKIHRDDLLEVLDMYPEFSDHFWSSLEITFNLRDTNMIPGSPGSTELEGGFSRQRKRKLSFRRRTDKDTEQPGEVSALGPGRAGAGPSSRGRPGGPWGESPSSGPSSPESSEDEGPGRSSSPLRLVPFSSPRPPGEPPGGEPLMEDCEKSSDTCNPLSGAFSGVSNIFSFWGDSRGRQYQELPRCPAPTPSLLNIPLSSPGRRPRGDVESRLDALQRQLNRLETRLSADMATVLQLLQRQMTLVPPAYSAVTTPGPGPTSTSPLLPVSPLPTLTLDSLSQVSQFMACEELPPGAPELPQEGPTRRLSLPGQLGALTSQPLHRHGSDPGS
For `CCC(=O)N1CCc2cc(Br)cc(S(=O)(=O)CCC(=O)NCCc3ccccc3)c21`, the “hERG current change (%, negative = inhibition) at 10uM” value was 3.68%. In the case of `Cc1nn(-c2ccccc2)c(Cl)c1/C=N/NC(=O)CNC(=O)c1ccccc1Cl`, the “hERG current change (%, negative = inhibition) at 10uM” value is reported as -29.2%. With `COc1cc(C2=NOC(C(=O)Nc3ccc(C)cc3)C2)cc(OC)c1OC` (stereo not shown) the “hERG current change (%, negative = inhibition) at 10uM” value was -4.96%. With `COCCNc1oc(-c2ccc(F)cc2)nc1C#N` the “hERG current change (%, negative = inhibition) at 10uM” value was 4.03%. `COC(=O)c1cc(CN2CCN(c3ccccc3)CC2)ccc1O.Cl` was tested, and the “hERG current change (%, negative = inhibition) at 10uM” value was -13.1%. `CCCC(=O)Nc1c2c(nn1-c1ccc(C)cc1C)CSC2` was tested, and the “hERG current change (%, negative = inhibition) at 10uM” value was -14.5%. `O=C(CN1CCCC1)Nc1sc2c(c1C(=O)Nc1ccc(Br)cc1)CCC2` was tested, and the “hERG current change (%, negative = inhibition) at 10uM” value was -1.29%. For `O=c1c2ccccc2nc2n1CCN2`, the “hERG current change (%, negative = inhibition) at 10uM” value was 8.54%. In the case of `O=C(CCN1CCN(C(=O)c2ccco2)CC1)Nc1ccc(F)cc1`, the “hERG current change (%, negative = inhibition) at 10uM” value is reported as -22.4%. For `Cc1ccc(NC(=O)c2cn(-c3cccc(C)n3)cn2)cc1`, the “hERG current change (%, negative = inhibition) at 10uM” value was 2.19%. With `CCCCn1c(N)c(Sc2ccccc2[N+](=O)[O-])c(=O)[nH]c1=O` the “hERG current change (%, negative = inhibition) at 10uM” value was 10.7%. In the case of `O=C(CSc1nnnn1-c1ccccc1)N1CCCc2ccccc21`, the “hERG current change (%, negative = inhibition) at 10uM” value is reported as -6.72%. `CCOCCn1c(CN2CCN(c3ccc(OC)cc3)CC2)nc2c1c(=O)n(C)c(=O)n2C` was tested, and the “hERG current change (%, negative = inhibition) at 10uM” value was -41.2%. With `O=C(CC1CCCCC1)Nc1c2c(nn1-c1ccc(F)cc1)CS(=O)(=O)C2` the “hERG current change (%, negative = inhibition) at 10uM” value was -14.3%. With `Cc1ccc(C)c(NC(=O)Cn2c(=O)n(-c3ccc(CC(=O)NCC4CCCO4)cc3)c(=O)c3ccccc32)c1` (stereo not shown) the “hERG current change (%, negative = inhibition) at 10uM” value was 15.5%. `COc1ccc(N2CCN(C(=O)c3ccc(N4C(=O)NC5CC4(C)Oc4ccccc45)cc3)CC2)cc1` (stereo not shown) was tested, and the “hERG current change (%, negative = inhibition) at 10uM” value was -6.29%. With `CCC(NC(=O)Cc1c(C)c2cc3c(cc2oc1=O)OC(C)(C)CC3)C(=O)O` (stereo not shown) the “hERG current change (%, negative = inhibition) at 10uM” value was 21.2%. For `O=C(NNS(=O)(=O)Cc1ccccc1)c1ccc([N+](=O)[O-])cc1`, the “hERG current change (%, negative = inhibition) at 10uM” value was -17%. `CCc1ccc(C2C(C#N)=C(N)SC(N)=C2C#N)cc1` was tested, and the “hERG current change (%, negative = inhibition) at 10uM” value was 9.3%. With `CCN1CCN(S(=O)(=O)c2ccc(C(=O)Nc3sc4c(c3C(N)=O)CCN(CC)C4)cc2)CC1` the “hERG current change (%, negative = inhibition) at 10uM” value was 12.4%. In the case of `O=C(CN1CCN(c2ccccn2)CC1)N(c1ccccc1)c1ccc2ccccc2c1`, the “hERG current change (%, negative = inhibition) at 10uM” value is reported as -49.2%. In the case of `COc1ccc(N2C(=O)NC(=O)/C(=C/c3ccc(N4CCOCC4)cc3)C2=O)cc1`, the “hERG current change (%, negative = inhibition) at 10uM” value is reported as 0.773%. With `O=Cc1c(N2CCCCCC2)nc2ccccn2c1=O` the “hERG current change (%, negative = inhibition) at 10uM” value was 1.82%. For `CCCCN(C(=O)Cc1cccc(F)c1)c1c(N)n(CCC)c(=O)[nH]c1=O`, the “hERG current change (%, negative = inhibition) at 10uM” value was 7.66%. With `Cn1ccnc1Sc1ccc(C(N)=O)cc1[N+](=O)[O-]` the “hERG current change (%, negative = inhibition) at 10uM” value was 12.9%. With `O=[N+]([O-])c1cccc(S(=O)(=O)N/N=C/c2ccc(O)cc2)c1` the “hERG current change (%, negative = inhibition) at 10uM” value was 1.14%. `COCCCNS(=O)(=O)c1cc2c3c(c1)C(C)C(=O)N3CCC2` (stereo not shown) was tested, and the “hERG current change (%, negative = inhibition) at 10uM” value was 16.4%. For `CN(C)CCN(C(=O)c1ccc(S(=O)(=O)N(C)c2ccccc2)cc1)c1nc2cc3c(cc2s1)OCCO3.Cl`, the “hERG current change (%, negative = inhibition) at 10uM” value was -1.95%. With `COCCNC(=O)CN(c1cc(C(F)(F)F)ccc1Cl)S(C)(=O)=O` the “hERG current change (%, negative = inhibition) at 10uM” value was 6.08%. With `O=c1cc(-c2ccc(F)cc2)oc2ccccc12` the “hERG current change (%, negative = inhibition) at 10uM” value was -7.04%. In the case of `O=[N+]([O-])c1ccc(-[n+]2c(-c3ccccc3)cc(-c3ccccc3)cc2-c2ccccc2)cc1.[O-][Cl+3]([O-])([O-])[O-]`, the “hERG current change (%, negative = inhibition) at 10uM” value is reported as 4.73%. `O=c1cc(O)n(-c2ccc(Cl)cc2)c(=S)[nH]1` was tested, and the “hERG current change (%, negative = inhibition) at 10uM” value was 6.26%. With `CCOc1ccc(S(=O)(=O)NCc2ccccn2)c(C)c1C` the “hERG current change (%, negative = inhibition) at 10uM” value was 6.62%. With `Cc1ccc(S(=O)(=O)NNC(=O)c2sc(NS(=O)(=O)c3ccccc3)nc2C)cc1` the “hERG current change (%, negative = inhibition) at 10uM” value was 9.48%. In the case of `Cc1ccc(C(=O)Nn2cnc3ccccc3c2=O)cc1C`, the “hERG current change (%, negative = inhibition) at 10uM” value is reported as -4.89%. In the case of `O=C(NC(=S)NC1CCSC1=O)c1ccccc1F` (stereo not shown), the “hERG current change (%, negative = inhibition) at 10uM” value is reported as 9.75%. With `O=C(COc1coc(CN2CCCc3ccccc32)cc1=O)Nc1ccccc1` the “hERG current change (%, negative = inhibition) at 10uM” value was -28.2%. `CCN1CCSc2ccc(C(=O)NCc3cccc(Br)c3)cc21` was tested, and the “hERG current change (%, negative = inhibition) at 10uM” value was -0.0439%. `O=C(NC(=S)Nc1ccc(S(=O)(=O)Nc2nccs2)cc1)c1cccc(F)c1` was tested, and the “hERG current change (%, negative = inhibition) at 10uM” value was 0.753%. `CC(OC(=O)c1cccc(-n2cnnn2)c1)C(=O)c1ccccc1` (stereo not shown) was tested, and the “hERG current change (%, negative = inhibition) at 10uM” value was -17%. `Cc1cc(Br)cc(C)c1OCC(=O)NNC(=O)CCC(=O)NCc1ccccc1` was tested, and the “hERG current change (%, negative = inhibition) at 10uM” value was 13%. `Cn1c(CCN2CCOCC2)nc2cc(NC(=O)COc3ccc([N+](=O)[O-])cc3)ccc21` was tested, and the “hERG current change (%, negative = inhibition) at 10uM” value was -21.1%. With `COc1ccc(C)cc1NC(=O)CCN1CC(C)OC(C)C1.Cl` (stereo not shown) the “hERG current change (%, negative = inhibition) at 10uM” value was 15%.
